In the supplement of paper PMC11417369:
± gives the standard deviation of the averaged measurements. This is one part of the list.

system: PfAP2-I AP2 domain 3 (GST-tagged); assay: gcPBM binding intensity (ln(normalized median fluorescence intensity)); higher = stronger DNA binding
Procedure, shortened: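 After 1 h on an Agilent 4 × 180k array of primer-extended double-stranded 36-bp intergenic genomic probes and negative controls, bound GST-tagged P. falciparum DNA-binding domains were detected with Alexa488 anti-GST antibody and scanned at 488 nm. The domains had been expressed in E. coli, and binding took place in 1× PBS with 1% milk, 0.2 mg/ml BSA, 0.5% salmon testes DNA and 0.03% Triton X-100. Binding intensity is the highest Masliner-normalised natural-log median intensity across replicate spots of either probe orientation.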

Row | Sequence | gcPBM binding intensity (ln)
1 | TACAAAATATATATGACACACACAAAAAAAGTATAT [CACACA_site8455] | 7.89 ± 0.69
2 | TATTTTTCCATTGGGGGTACATGTGTTATATTTATT [XGTACX_site5914] | 9.865 ± 0.049
3 | ATATATATGCATATATGTACTTAAAATATAAAGGCA [XGTACX_site3256] | 7.93 ± 0.49
4 | ATTTTTTCTGTCTTAATTGGACCCACTGCAAATGGG [CACACA_negctrl_site1158] | 8.12 ± 0.15
5 | ATAATACAAAAAAAAAAAAAAAATAAAATAATAAAA [GTGCAC_negctrl_site722] | 7.49 ± 0.2
6 | TACCTAAATAAATGGACACACACATATATATATATA [CACACA_site8407] | 9.39 ± 0.43
7 | TTATAGCCTGTGAAGAGTACATTTTTATTTTTTATT [XGTACX_site4105] | 7.71 ± 0.55
8 | AAGTAATACAACACGCACATATATATATATATATAT [GTGCAC_negctrl_site89] | 9.37 ± 0.48
9 | TATTTTTAAATATAAAGTACTTATATTAACTACGAA [XGTACX_site1524] | 7.71 ± 0.3
10 | TCTGTAGTTTTTTACAGTACTTTTAGGTAATACATA [XGTACX_site7417] | 7.59 ± 0.33
11 | TTCTTGTATTTTCATAGTACATATAATGTCGTGTTA [XGTACX_site7714] | 7.84 ± 0.52
12 | AAAACACCCAAACACACACACACATATATATATATA [CACACA_site9119] | 9.43 ± 0.42
13 | ACCTCTTTGAAATATACACACTAAACATATCAACTT [CACACA_site5372] | 8.13 ± 0.82
14 | TACATAGAGTTTGTTTGTACTCATATGCGTAAATTC [XGTACX_site4810] | 7.91 ± 0.33
15 | AGAAAAAAAATATACACACATACGATCATACATATG [CACACA_site2171] | 7.62 ± 0.57
16 | CATTATGTCATAAATGCACACATATACATTGTTTTG [CACACA_site8118] | 9.635 ± 0.007
17 | AATAAATTATTTATTGCATGTAATATGAATATTTTT [TGCATGCA_site798] | 7.66 ± 0.42
18 | TAATGTATGAAATAAACACACAAGTAAGTACATAAA [CACACA_site2451] | 8.15 ± 0.3
19 | ATATATTTTATTCCTATATATATATATATATATATA [GTGCAC_negctrl_site556] | 9.18 ± 1
20 | TATATTACTTAAAATACACACCATGGAAAAGTTTTA [CACACA_site5443] | 7.55 ± 0.59
21 | ATTATTTTTCTATGTGTGCACGTGTGGAATGTGTCT [GTGCAC_site9507] | 10.81 ± 0.064
22 | TTCTGAACAAAATTATATATTTATTTTTATTTTCAT [CACACA_negctrl_site422] | 7.46 ± 0.56

Row | Sequence | gcPBM binding intensity (ln)
23 | TTTTTATTTTTTTTATGTACACAAATGATATACATA [XGTACX_site5910] | 8.13 ± 0.4
24 | AGGATACACGGACACACACACATATAGATTTATATA [CACACA_site6552] | 8.14 ± 0.2
25 | TTTCTTTTTTTTTTTTTTTCTGGCTTTTTCTCTTTT [TGCATGCA_negctrl_site599] | 7.61 ± 0.33
26 | TAAAAATGTAGACACACACACATATATATATTTAAT [CACACA_site1528] | 7.75 ± 0.4
27 | ATATATATAATATAGGTGCACTACTTATTTAAAAAA | 11.6 ± 0.2
28 | AAATAATTAGCTATTTGTACATATATACATATTTAT [XGTACX_site4652] | 7.63 ± 0.57
29 | TTAATAACAAAATAAACACACATATATAAATCCACA [CACACA_site1590] | 7.97 ± 0.44
30 | AAAATGAATATAATGACGCACACTTAAAATTGTTAA [CACACA_site2509] | 7.84 ± 0.45
31 | TGTGTTAAATGTAATAGTGAATAAATAATTTTAACA [TGCATGCA_negctrl_site161] | 7.67 ± 0.35
32 | TTTTTTAGAAAAAGTTGTACTTTTTTTTTTTTTTTT [XGTACX_site535] | 8.62 ± 0.4
33 | TTTTTACGTAAACAAAATAATTATATAATATTATTT [CACACA_negctrl_site1769] | 7.62 ± 0.35
34 | TAAACAAATAAATAAACACACAATATATGTATATAT [CACACA_site3803] | 7.59 ± 0.54
35 | CGTAAATTTTTTAAAAGTACAAAAAGATACGAGAAA [XGTACX_site8722] | 7.92 ± 0.45
36 | ATATATTAGGGCAAATTTTCTGACATTACATCAGTC [CACACA_negctrl_site1166] | 7.79 ± 0.71
37 | ATATTTATATTTGTATGTACTTAAGTTTGTATGTAT [XGTACX_site3608] | 7.88 ± 0.42
38 | TTTTTAATTCAAAAAATAATATATTATATTTCAAAT [CACACA_negctrl_site737] | 7.38 ± 0.48
39 | TATTTTTCTTTTTTCTGTACTCACACAAATAGAAGG [XGTACX_site7329] | 8.06 ± 0.21
40 | ATACAACATATATATACACACATATAATAATAATAA [CACACA_site3367] | 7.97 ± 0.45
41 | GAATAAAAAATATATGTGCACATATAAACTTAAAAT [GTGCAC_site9554] | 9.72 ± 0.23
42 | TAATATAAAGGAAAAGAAAAGAAAAGAATATACAAT [CACACA_negctrl_site1369] | 7.54 ± 0.59
43 | AAACCAATAAAAAACTGTACAAAAATTATATGAGAT [XGTACX_site1269] | 7.84 ± 0.71
44 | AAAAAACTTATAATCACACATATGATTAAATATTAA [CACACA_site4956] | 7.31 ± 0.44

Row | Sequence | gcPBM binding intensity (ln)
45 | ATAGGACCTATGTGCCCATGGGTACATTAAAAAAAA [CACACA_negctrl_site1465] | 7.97 ± 0.54
46 | AAAAAAAAAAAAAAAATACACACGTGAATGTATTGT [CACACA_site1320] | 8.64 ± 0.51
47 | AAATAACACATATATACACACATATAAATATAATAT [CACACA_site2692] | 7.8 ± 0.45
48 | TTTGTTTTAAATCGAAGTACACATAATTATATTTTA [XGTACX_site1541] | 7.72 ± 0.19
49 | AATTATTTTTTGTATGAACACACAACTTAATTATGA [CACACA_site8774] | 7.62 ± 0.57
50 | TTGAATGTAGTTAAATGTACATGTAATATATAAAAA [XGTACX_site1250] | 8.03 ± 0.54
51 | TATATATATACATAATGTACATTTTATAAATTTACA [XGTACX_site5283] | 8.66 ± 0.24
52 | ATATTTTAAATGTTATGTACACATTTGTTGTTTACA [XGTACX_site7353] | 7.93 ± 0.28
53 | AATATTATTATTATTACACACACAATTATATTTACC [CACACA_site8061] | 7.93 ± 0.38
54 | ATTTTTTTTTTTATTTTCTTTGAGATTATCTTAATT [CACACA_negctrl_site1209] | 7.55 ± 0.69
55 | TTAATTTGTTCTTACACACACATATATATATATTTA [CACACA_site1185] | 8.11 ± 0.37
56 | ACTACCTATATTTAAGCATGCAAAAAATAAAAATAT [TGCATGCA_site238] | 8.04 ± 0.63
57 | ATAAATTGTTCTTTTTGTGTAAACAGAATATTAAAA [CACACA_negctrl_site1022] | 7.55 ± 0.54
58 | TGTACAACAATTTTTGCACACACCAAAACATAAAAT [CACACA_site1598] | 8.95 ± 0.13
59 | AGAAAAGAAATTAAATGTACACAACTATAACCAAAT [XGTACX_site8084] | 8.28 ± 0.49
60 | AAAAAAAAAAAATAAAGTACTAAATAATACATTATA [XGTACX_site6203] | 7.42 ± 0.13
61 | TTTTATAAAATATAATATAATAATATATGTATAATA [CACACA_negctrl_site1788] | 7.42 ± 0.49
62 | ATATATCTACAAATATGTACACACACACATATATAT [XGTACX_site1075] | 8.12 ± 0.53
63 | AAAAAAAAAAAAAAAAAAAAAAAAATCACACATTGG [TGCATGCA_negctrl_site412] | 9.71 ± 0.085
64 | TTTTGGATGTATTATACATGCATATTATTATAATAT [TGCATGCA_site997] | 8.24 ± 0.68
65 | ATCTGAAAAATTAATAGTACAATTAATAATTAAACC [XGTACX_site8523] | 7.9 ± 0.48
66 | AAACAAAAAAGAAGCACACATATATATATATATATG [CACACA_site2456] | 8.44 ± 0.6

Row | Sequence | gcPBM binding intensity (ln)
67 | TATACGCATATATACACACACATATATATATATATA [CACACA_site3416] | 9.43 ± 0.66
68 | AACAAACAAATAGTTTATTTTGATTTTTTTAAAAAT [CACACA_negctrl_site693] | 7.36 ± 0.65
69 | TGTTAATTTCATTTTCTACACACCTATCCTTTTTTT [CACACA_site8157] | 7.88 ± 0.66
70 | ACAAATAAATATTCGCGTACTTATATAATATTACGA [XGTACX_site6428] | 7.95 ± 0.18
71 | AAAAAAAATATCCGACGTACTATTTTCGTAGAAATA [XGTACX_site6292] | 7.53 ± 0.54
72 | TCATATGTGAAACACACACACACACCCAAAAAAACA [CACACA_site3247] | 8.06 ± 0.16
73 | TGTTTCTTATTTTTTTCACACACTAATCATTTCAAA [CACACA_site8695] | 8.16 ± 0.57
74 | ATTATGTTATTATTTTGTACACATAAATAATACGTT [XGTACX_site816] | 7.9 ± 0.52
75 | GAACAAAAATACTTATGTACACATTAGCAAGGAAAA [XGTACX_site5622] | 8.06 ± 0.73
76 | AAATTTTTTTTTGTCATATGATGTTTGAACCCAAAT [CACACA_negctrl_site1659] | 7.67 ± 0.49
77 | TCCGTATATTTATACGCATGCATTATGAACATTGTT [TGCATGCA_site613] | 7.89 ± 0.8
78 | AAAAAAAATAATTTGCGTACATAAAAATTTATAGGA [XGTACX_site3016] | 7.92 ± 0.42
79 | ATGTAGACTGAAACCACACACACATATATATATATA [CACACA_site606] | 9.36 ± 0.014
80 | GGATTACAAATAGGTTGTACGTTTTTTTTTTTTTCT [XGTACX_site3605] | 7.79 ± 0.69
81 | TTACATTGTAAAAAGTGTACATATAATTTAATTAAT [XGTACX_site1834] | 8.05 ± 0.49
82 | TCCACATTAATGTAATGTACAAAATTAGAAAATAAA [XGTACX_site6287] | 7.71 ± 0.34
83 | AATATAAATACTCCTACACACATATAAATATAAATA [CACACA_site7419] | 7.83 ± 0.38
84 | TTTTGATTAAGTGAATTTTTTTATTTATATAAATAT [TGCATGCA_negctrl_site479] | 7.54 ± 0.56
85 | CATACATACATATATACACACATATATAATAATATA [CACACA_site2678] | 8.13 ± 0.29
86 | TACGAATTAAAAAAGAGTACAAATAAAATATCTACA [XGTACX_site7412] | 7.53 ± 0.44
87 | TTTTAAACACCAATCAAAAAAATATAAATATAAATA [TGCATGCA_negctrl_site552] | 7.61 ± 0.54
